From PMC4336329 (PLoS ONE, 2015)
Hit rate of the full screen: of about 310,000 compounds, about 14,000 (4.5%) showed an effect of 50% or more. The effect is printed as a negative number. The list shows a part of the results.

molecular target: human ether-à-go-go-related gene (hERG) potassium channel (human, UniProt Q12809); assay: primary screen, population patch clamp on CHO cells stably expressing hERG
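Further: peak tail current of the secondary pulse compared with the same well before compound.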

Sequence of human ether-à-go-go-related gene (hERG) potassium channel (Q12809 whole entry, looked up): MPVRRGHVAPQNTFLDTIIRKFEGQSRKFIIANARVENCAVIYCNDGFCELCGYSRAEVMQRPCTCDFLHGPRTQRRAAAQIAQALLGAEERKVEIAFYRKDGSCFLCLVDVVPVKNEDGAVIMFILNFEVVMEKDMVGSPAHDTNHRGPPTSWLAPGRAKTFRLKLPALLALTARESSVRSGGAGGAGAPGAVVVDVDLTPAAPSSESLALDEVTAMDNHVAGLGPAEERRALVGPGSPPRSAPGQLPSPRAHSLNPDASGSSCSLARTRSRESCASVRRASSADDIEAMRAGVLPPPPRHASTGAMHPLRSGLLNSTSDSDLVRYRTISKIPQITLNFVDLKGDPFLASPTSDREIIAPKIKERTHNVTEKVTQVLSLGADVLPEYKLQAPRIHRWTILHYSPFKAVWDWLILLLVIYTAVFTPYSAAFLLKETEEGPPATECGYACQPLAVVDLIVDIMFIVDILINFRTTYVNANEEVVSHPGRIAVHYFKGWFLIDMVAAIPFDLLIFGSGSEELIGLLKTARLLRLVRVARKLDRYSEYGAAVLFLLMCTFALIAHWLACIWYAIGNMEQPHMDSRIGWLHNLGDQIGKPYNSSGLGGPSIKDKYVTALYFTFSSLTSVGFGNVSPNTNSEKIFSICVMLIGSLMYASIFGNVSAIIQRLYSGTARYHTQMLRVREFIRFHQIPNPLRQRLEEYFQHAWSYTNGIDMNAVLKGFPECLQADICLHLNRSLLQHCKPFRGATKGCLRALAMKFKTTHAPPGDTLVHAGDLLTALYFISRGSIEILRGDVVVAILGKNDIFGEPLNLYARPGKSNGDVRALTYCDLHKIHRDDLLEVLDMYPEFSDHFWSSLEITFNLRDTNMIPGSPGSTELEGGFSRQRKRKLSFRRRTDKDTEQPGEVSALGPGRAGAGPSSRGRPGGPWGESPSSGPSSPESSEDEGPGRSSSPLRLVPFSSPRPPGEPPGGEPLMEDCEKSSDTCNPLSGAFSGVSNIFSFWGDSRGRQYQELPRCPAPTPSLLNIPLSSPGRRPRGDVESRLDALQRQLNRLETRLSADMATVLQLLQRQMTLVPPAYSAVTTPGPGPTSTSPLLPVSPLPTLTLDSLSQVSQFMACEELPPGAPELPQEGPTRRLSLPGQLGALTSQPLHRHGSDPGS

SMILES | hERG current change (%, negative = inhibition) at 10uM [%]
CC1CC(=O)N(c2ccc(NCc3ccccc3Cl)c([N+](=O)[O-])c2)C1=O (centres unmarked) | 0.813
CC(CS(=O)(=O)c1ccccc1[N+](=O)[O-])N1CCOCC1 (centres unmarked) | 5.68
CCn1c(CC(=O)Nc2ccc(F)cc2)nnc1SCC(=O)Nc1nncs1 | -4.43
Cc1cccc(NC(=O)Cn2nc(-c3cccs3)ccc2=O)c1C | 4.16
CCCCOc1ccc(C(=O)CCN2CCOCC2)cc1.Cl | -4.58
c1ccc(OCc2nc3ccccc3s2)cc1 | 2.17
Cc1c(CCN)ccc2c1[nH]c1ccccc12 | 0.0766
O=C1N(CCCCN2C(=O)C3(OCCO3)c3ccccc32)c2ccccc2C12OCCO2 | 6.9
O=C(NNC1=NS(=O)(=O)c2ccccc21)C1CC(=O)N(c2ccccc2)C1 (centres unmarked) | 11.5
CC(=O)Nc1ccc(C(=S)NCCCO)cc1 | 11.6
C[C@H](NC(=O)c1ccccc1Cl)C(=O)NCc1cccs1 | 31.5
Cc1ccc(OCc2nn3c(-c4ccco4)nnc3s2)cc1 | -2.29
CN1CCN(C(=O)CN(c2cccc(Cl)c2)S(=O)(=O)c2ccccc2)CC1 | -26
O=C1C2CC=C(Cl)CC2C(=O)N1c1ncn[nH]1 (centres unmarked) | 24
Cc1ccc(NC(=O)CSc2nnc(NC(=O)C3CC3)s2)cc1C | 7.31
COc1ccc(OC)c(NC(=O)c2cc(OC(C)=O)cc(C(=O)Nc3cc(OC)ccc3OC)c2)c1 | 11.5
C=CCOc1ccc2c(c1)c(=O)cc(C(=O)O)n2CC | 10.3
CCCCCCOc1ccc(C(=O)O)cc1 | 4.98
Cc1ccc(S(=O)(=O)NCCCCCC(=O)NC(C)(C)CO)cc1 | 13.7
O=C(N/N=C/c1cccs1)c1n[nH]c2c1CCCC2 | 23.1
O=C(/C=C/c1ccccc1Cl)c1ccccc(=O)c1O | -1.72
Cc1ccc(NC(=O)CC2Oc3ccccc3NC2=O)c(C)c1 (centres unmarked) | 10.7

SMILES | hERG current change (%, negative = inhibition) at 10uM [%]
COc1ccc(C(c2nnnn2C(C)(C)C)N2CCN(C)CC2)cc1OC (centres unmarked) | -2.44
O=C(CC1NCCNC1=O)NC1Cc2ccccc2C1 (centres unmarked) | 2.6
CCOC(=O)Nc1ccc2c(c1)N(C(=O)OC)c1ccccc1CC2 | -2.44
COC(=O)c1ccc(NC(C)=O)o1 | 2.44
Cc1ccc(CNC(=O)c2cc(S(=O)(=O)N3CCOCC3)cn2C)cc1 | -12.5
CCOC(=O)[C@H]1[C@H]2COc3ccc(Cl)cc3[C@@H]2N2C(=O)c3cc(C)ccc3NC(=O)[C@@]12C | 5.63
O=C(c1ccco1)N1CCN(C(=S)Nc2ccc(F)cc2)CC1 | -2.5
CC1CCCN(S(=O)(=O)c2ccc3c(c2)n(C)c(=O)c(=O)n3C)C1 (centres unmarked) | 4.51
COCc1cc(C)nc(OCC(=O)N/N=C\c2cc(C)n(-c3cccc(C(F)(F)F)c3)c2C)c1C#N | 11.8
Cc1cc(-c2ccccc2)c2c3c(cn2n1)c(=O)n(C)c(=O)n3C | -6.82
NC(=O)c1ccc[n+](CCC[n+]2cccc(C(N)=O)c2)c1.[Br-] | 14.9
CN(C)S(=O)(=O)c1ccc(Cl)c(-c2nnc3n2CCCCC3)c1 | -12.4
CCOc1ccccc1NC(=O)c1nnn(CC(=O)Nc2cc(C)cc(C)c2)c1N | 15.7
O=C(Nc1cccc(C(=O)N2CCN(c3cccc(Cl)c3)CC2)c1)c1ccccc1 | 4.69
CCn1cc(C(=O)OC)c(=O)c2ccc(C)nc21 | 22.4
COc1ccc(/C=N/Nc2ccccn2)cc1O | -2.07
O=C(COC(=O)C1C2CC3OC(=O)C1C3C2)Nc1ccccc1 (centres unmarked) | 12
CC(C)c1c(O)nc(SCc2ccccc2)[nH]c1=O | 11.5
COn1c(=O)c(=O)n(OC)c2ccccc21 | -3.45
COc1ccc(-c2cc(=O)n(-c3ccc([N+](=O)[O-])cc3)[nH]2)cc1 | 16.8
Cc1ccc(S(=O)(=O)CCC(=O)N2CCN(c3ccc(Cl)cc3)CC2)cc1 | -23.8
O=C(Nc1ccc2ccccc2c1)c1cc(F)c(F)cc1Cl | 17.5
